2 molecules from patent US20090311253A1 (AbbVie / Abbott, published 2009) can be followed below.

Experiment [1] has as its target T1, Recombinant Human IL-1β (human, UniProt P01584 117-269). The experiment in a line: cell-based or functional assay.
In experiment [2] the target is T1, Recombinant Human IL-1β. The experiment in a line: Biacore SPR. Here is the method:
(§1) The BIACORE assay (Biacore, Inc, Piscataway, N.J.) determines the affinity of antibodies or DVD-Ig with kinetic measurements of on-rate and off-rate constants. Binding of antibodies or DVD-Ig to a target antigen (for example, a purified recombinant target antigen) is determined by surface plasmon resonance-based measurements with a BiacoreR 1000 or 3000 instrument (Biacore® AB, Uppsala, Sweden) using running HBS-EP (10 mM HEPES [pH 7.4], 150 mM NaCl, 3 mM EDTA, and 0.005% surfactant P20) at 25° C. All chemicals are obtained from Biacore® AB (Uppsala, Sweden) or otherwise from a different source as described in the text. For example, approximately 5000 RU of goat anti-mouse IgG, (Fcγ), fragment specific polyclonal antibody (Pierce Biotechnology Inc, Rockford, Ill.) diluted in 10 mM sodium acetate (pH 4.5) is directly immobilized across a CM5 research grade biosensor chip using a standard amine coupling kit according to manufacturer's instructions and procedures at 25 μg/ml. Unreacted moieties on the biosensor surface are blocked with ethanolamine. Modified carboxymethyl dextran surface in flowcell 2 and 4 is used as a reaction surface. Unmodified carboxymethyl dextran without goat anti-mouse IgG in flow cell 1 and 3 is used as the reference surface. For kinetic analysis, rate equations derived from the 1:1 Langmuir binding model are fitted simultaneously to association and dissociation phases of all eight injections (using global fit analysis) with the use of Biaevaluation 4.0.1 software. Purified antibodies or DVD-Ig are diluted in HEPES-buffered saline for capture across goat anti-mouse IgG specific reaction surfaces. Antibodies or DVD-Ig to be captured as a ligand (25 μg/ml) are injected over reaction matrices at a flow rate of 5 μl/min. The association and dissociation rate constants, kₒₙ (M⁻¹s⁻¹) and koff (s⁻¹) are determined under a continuous flow rate of 25 μl/min. Rate constants are derived by making kinetic binding measurements at different antigen concentrations ranging from […]. The equilibrium dissociation constant (M) of the reaction between antibodies or DVD-Igs and the target antigen is then calculated from the kinetic rate constants by the following formula: KD=koff/kₒₙ. Binding is recorded as a function of time and kinetic rate constants are calculated.

The target of experiment [3] is T2, Recombinant Human VEGF (human, UniProt P15692-4 27-191).
T2 construct: also called VEGF165
T2 sequence (looked up): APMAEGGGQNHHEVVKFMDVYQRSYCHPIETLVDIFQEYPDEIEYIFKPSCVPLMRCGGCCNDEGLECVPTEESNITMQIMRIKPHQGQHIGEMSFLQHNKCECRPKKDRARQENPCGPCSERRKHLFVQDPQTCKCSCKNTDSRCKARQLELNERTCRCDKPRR
Nature of the experiment: Biacore SPR. Here is the method: as §1
(In general: Surface plasmon resonance follows binding to a sensor surface in real time, without labels.)

Experiment [4] has as its target T1, Recombinant Human IL-1β. Nature of the experiment: direct bind ELISA. Here is the method: (§2) Enzyme Linked Immunosorbent Assays to screen for antibodies that bind a desired target antigen were performed as follows. High bind ELISA plates (Corning Costar # 3369, Acton, Mass.) were coated with 100 μL/well of 10 μg/ml of desired target antigen (R&D Systems, Minneapolis, Minn.) or desired target antigen extra-cellular domain/FC fusion protein (R&D Systems, Minneapolis, Minn.) or monoclonal mouse anti-polyhistidine antibody (R&D Systems # MAB050, Minneapolis, Minn.) in phosphate buffered saline (10×PBS, Abbott Bioresearch Center, Media Prep# MPS-073, Worcester, Mass.) overnight at 4° C. Plates were washed four times with PBS containing 0.02% Tween 20. Plates were blocked by the addition of 300 μL/well blocking solution (non-fat dry milk powder, various retail suppliers, diluted to 2% in PBS) for ½ hour at room temperature. Plates were washed four times after blocking with PBS containing 0.02% Tween 20.
(§3) Plates were washed 4 times with PBS containing 0.02% Tween 20.
(§4) One hundred microliters of enhanced TMB solution (Neogen Corp. #308177, K Blue, Lexington, Ky.) was added to each well and incubated for 10 minutes at room temperature. The reaction was stopped by the addition of 50 μL 1N sulphuric acid. Plates were read spectrophotometrically at a wavelength of 450 nm.
For orientation: In an ELISA, binding on a coated surface is turned into a signal by an enzyme label.

The target in experiment [5] is T2, Recombinant Human VEGF. Nature of the experiment: direct bind ELISA. Here is the method: as §2, §3, §4
For experiment [6], the target named is T3, Recombinant Human IL-13 (human, UniProt P35225 fragment, limits assumed). The experiment in a line: cell-based or functional assay.
For experiment [7], the target named is T3, Recombinant Human IL-13. Nature of the experiment: Biacore SPR. Here is the method:
as §1

The target in a further experiment is Recombinant Human IL-9 (human, UniProt P15248). Nature of the experiment: Biacore SPR. Here is the method: as §1
For experiment [8], the target named is T3, Recombinant Human IL-13. Nature of the experiment: direct bind ELISA. As to the method: as §2, §3, §4
T3 sequence (P35225 35-146 limits assumed): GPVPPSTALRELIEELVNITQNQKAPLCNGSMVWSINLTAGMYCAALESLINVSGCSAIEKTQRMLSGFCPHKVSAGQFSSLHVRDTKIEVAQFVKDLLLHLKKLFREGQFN

Sequence of Recombinant Human IL-9 (P15248 19-144 limits assumed): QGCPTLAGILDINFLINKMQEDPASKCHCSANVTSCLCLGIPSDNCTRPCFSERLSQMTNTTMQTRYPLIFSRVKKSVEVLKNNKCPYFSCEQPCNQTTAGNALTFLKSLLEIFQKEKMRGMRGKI

B1: DVD123 (bispecific antibody, human IgG1, kappa)
heavy: QVQLVESGGGVVQPGRSLRLSCAASGFTFSVYGMNWVRQAPGKGLEWVAIIWYDGDNQYYADSVKGRFTISRDNSKNTLYLQMNGLRAEDTAVYYCARDLRTGPFDYWGQGTLVTVSSASTKGPEVQLVESGGGLVQPGGSLRLSCAASGYTFTNYGMNWVRQAPGKGLEWVGWINTYTGEPTYAADFKRRFTFSLDTSKSTAYLQMNSLRAEDTAVYYCAKYPHYYGSSHWYFDVWGQGTLVTVSS[left out - human IgG1 constant region]
light: EIVLTQSPDFQSVTPKEKVTITCRASQSIGSSLHWYQQKPDQSPKLLIKYASQSFSGVPSRFSGSGSGTDFTLTINSLEAEDAAAYYCHQSSSLPFTFGPGTKVDIKRTVAAPDIQMTQSPSSLSASVGDRVTITCSASQDISNYLNWYQQKPGKAPKVLIYFTSSLHSGVPSRFSGSGSGTDFTLTISSLQPEDFATYYCQQYSTVPWTFGQGTKVEIKRTVAAPSVFIFPPSDEQLKSGTASVVCLLNNFYPREAKVQWKVDNALQSGNSQESVTEQDSKDSTYSLSSTLTLSKADYEKHKVYACEVTHQGLSSPVTKSFNRGEC
notes: outer AB032, inner AB014; vectors V1, V2
For B1, the “IL-1β Neutralization Assay EC50 (MRC5 cells, hIL-8)” value with Recombinant Human IL-1β [1] is 0.023 nM. For the same molecule, in the experiment with Recombinant Human IL-1β [2], the Kd came out at 0.0338 nM, the dissociation rate constant (koff) came out at 4.21e-05 s⁻¹ and the kon turned out to be 1.25e+06 M⁻¹ s⁻¹. In the experiment with Recombinant Human VEGF [3], the equilibrium dissociation constant (Kd) turned out to be 1 nM, the off-rate (koff) was found to be 3.71e-05 s⁻¹ and the on-rate (kon) is 37000 M⁻¹ s⁻¹. Moreover, the EC50 with Recombinant Human IL-1β [4] came to 8.2 nM. Also, the EC50 with Recombinant Human VEGF [5] turned out to be 131 nM.

B2: DVD285 (bispecific antibody, human IgG1, kappa)
heavy: QVQLQQSGAELMKPGASVKLSCKATGYTFTGSWIEWIKQRPGHGLEWIGQILPGSGSAYYNEKFKGKATFTADTSSKTVYIQLISLTTEDSAIYYCAREDNYGSSSLAYWGQGTLLTVSAASTKGPEVTLRESGPGLVKPTQTLTLTCTLYGFSLSTSDMGVDWIRQPPGKGLEWLAHIWWDDVKRYNPALKSRLTISKDTSKNQVVLKLTSVDPVDTATYYCARTVSSGYIYYAMDYWGQGTLVTVSS[left out - human IgG1 constant region]
light: DILLTQSPAILSVSPGERVSFS[left out - about 80 residues]FGAGTKLELKRTVAAPDIQMTQSPSSLSASVGDRVTISCRASQDIRNYLNWYQQKPGKAPKLLIFYTSKLHSGVPSRFSGSGSGTDYTLTISSLQPEDIATYYCQQGLTPPLTFGGGTKVEIKRTVAAPSVFIFPPSDEQLKSGTASVVCLLNNFYPREAKVQWKVDNALQSGNSQESVTEQDSKDSTYSLSSTLTLSKADYEKHKVYACEVTHQGLSSPVTKSFNRGEC
notes: outer AB056, inner AB051; vectors V1, V2
Turning to B2, the “IL-13 Neutralization Assay EC50 (A549 cells, hTARC)” value in the experiment with Recombinant Human IL-13 [6] came to 0.2 nM. In the experiment with Recombinant Human IL-13 [7], the Kd came to 1.02 nM, the koff was found to be 0.000105 s⁻¹ and the kon came out at 103000 M⁻¹ s⁻¹. In the experiment with Recombinant Human IL-9, the Kd is 0.0167 nM, the off-rate (koff) was found to be 7.5e-05 s⁻¹ and the kon turned out to be 4.51e+06 M⁻¹ s⁻¹. Besides, the EC50 with Recombinant Human IL-13 [8] was 492 nM.

For orientation: Kd means the free concentration of one partner at which half of the binding sites on the other are occupied at equilibrium, for simple one-to-one binding. As a reminder, the koff is the rate constant with which the complex falls apart. What is called kon is the rate constant with which the complex forms. In general, EC50 refers to the concentration needed to bring the measured effect to its halfway point.
